Consider 42 compounds from ChEMBL document CHEMBL4888484, “Replenishing the malaria drug discovery pipeline: Screening and hit evaluation of the MMV Hit Generation Library 1 (HGL1) against asexual blood stage Plasmodium falciparum ,using a nano luciferase reporter read-out” (2022).

Out of some 150,000 compounds screened, about 540 (0.36%) showed an effect of 50% or more. The list shows a part of the results.

The subject of this assay is Plasmodium falciparum. The assay can be described thus: Primary screen in NF54 nanoGlo assay, in single point, at 2uM, 72h; a lower Z score goes with more inhibition. The format is functional, Erythrocyte. Particulars: timepoint 72 hour.
On to `CN(Cc1ccco1)C(=O)Cn1ccc(=O)n(C)c1=O`, for which the “% Inhibition” value is -4% and the Z score was 0.84.
As for `CC(C)(O)C#Cc1ccc(-c2c(-c3ccccc3)ncn2CC(N)=O)s1`, the “% Inhibition” value is -1% and the Z score is reported as 0.1.
In the case of `CCOC1CC(NC(=O)NCc2nc(C3CC3)no2)C12CCCC2` (centres undefined), the “% Inhibition” value is -10% and the Z score came to 0.82.
With `Cc1ccc(-c2noc(-c3ccc(N4CCCCC4)nc3)n2)cc1`, the “% Inhibition” value is recorded as 0% and the Z score is reported as 0.01.
For `Cn1nccc1-c1csc(N[C@H]2CCOc3ccccc32)n1`, in that order: -7% and 0.85.
`O=C(CC1=CCCCC1)N1CCCCO1`: the “% Inhibition” value is on record as -2% and the Z score was determined as 0.25.
As to `COc1ccccc1NC(=O)c1cc(S(=O)(=O)N2CCCC2)cs1`, the “% Inhibition” value is -2% and the Z score was determined as 0.29.
As for `Cc1cn(CCC2OCCO2)nc1-c1ccccc1`, the “% Inhibition” value stood at 2% and the Z score is reported as -0.2.
For `COc1ccc2cc(C(=O)NCC(=O)N3CCCC3)n(C)c2c1` the same measures were 14% and -1.86.
Turning to `Cc1nc2[nH]nc(N)c2c(C)c1-c1ccnc2c1ccn2C`, the “% Inhibition” value is on record as -1% and the Z score is on record as 0.08.
In the case of `Cc1cnn(C2CCCC2)c1NC(=O)N1CCS(=O)(=O)CC1`, the “% Inhibition” value is -18% and the Z score was found to be 1.9.
For `CN1C(=O)[C@H]2CN(c3ncc(C#N)c(N)n3)C[C@H]2C1=O` the same measures were -16% and 1.76.
For `O=C(CC(c1ccccc1)c1ccccc1)N1CCNCC1` the same measures were -9% and 1.24.
Turning to `CC(C)C(O)CC(=O)NC(C)(CO)C1CCCCC1` (centres undefined), the “% Inhibition” value came out at 25% and the Z score is reported as -2.82.
For `COCCn1cc(C(=O)Nc2cc(OC)ccc2N2CCCC2=O)c2ccccc2c1=O`, in that order: -13% and 1.56.
`O=C(Nc1cccnc1-c1ccccc1)N1CC[C@H](O)C1`: the “% Inhibition” value is -3% and the Z score worked out at 0.36.
For `COc1ccc(C2=C[C@@H](c3ccccc3F)n3ncc(C(=O)Nc4ccc(Cl)cc4)c3N2)cc1`, in that order: -9% and 1.39.
For `CN(C)c1ccc(NS(=O)(=O)C2CON(C)C2c2cccc(OCc3ccccc3)c2)cc1` (centres undefined), in that order: -14% and 1.86.
`Cc1cnc(C)c(NCc2ccc(N(C)C(=O)c3ccncc3)cc2)n1`: the “% Inhibition” value was -4% and the Z score turned out to be 0.4.
Consider `CCn1nccc1S(=O)(=O)N1CC[C@@]2(CCCN(CC3CC3)C2=O)C1`, for which the “% Inhibition” value amounted to 8% and the Z score was -1.1.
Take `Cc1nc(CN2CCC[C@H](Cc3nc4ccccc4[nH]3)C2)co1`: the “% Inhibition” value came to 19% and the Z score is reported as -2.55.
For `O=C(CC1CCC1)N1C[C@H](Nc2ncccn2)[C@@H](C2CC2)C1`, in that order: -17% and 1.76.
On to `O=C1C2CCCN2C(=O)N1C1CCCC1c1ccc(F)cc1` (centres undefined), for which the “% Inhibition” value is -1% and the Z score came out at 0.17.
For `Cc1ccc(C(=O)NCCc2ncc(C)n2C2CCCCC2)cn1`, in that order: -2% and 0.31.
As for `CN(C)CCN(C)c1nc(CC2CC2)nc2c1CCN(C)CC2`, the “% Inhibition” value was 4% and the Z score is -0.53.
For `CC(C)c1ccc(NC(=O)[C@]2(C)CCCCC(=O)N2)cc1` the same measures were -14% and 1.6.
As for `COc1ccc(N2CCCC2=O)c(NC(=O)CCc2ccccc2)c1`, the “% Inhibition” value is recorded as -10% and the Z score came to 1.27.
For `Cc1nc2c([nH]1)CN(CC(=O)NCc1ccccc1F)CC2`, in that order: -7% and 0.85.
As to `COc1cccc(C2=NS(=O)(=O)N(C)C(C(=O)N3CCCC[C@@H]3C)=C2)c1`, the “% Inhibition” value came out at 2% and the Z score is on record as -0.26.
For the compound `CNc1cc([C@H]2C[C@@H](NS(=O)(=O)c3c(C)noc3C)C2)nc(N)n1`, the “% Inhibition” value was 18% and the Z score is -2.32.
For `CC1(C)NC(=O)N(CC(=O)NC(c2cccs2)[C@H]2C[C@@H](O)C2)C1=O` (some centres undefined), in that order: -7% and 1.15.
For `CCN1C[C@@H](COC(=O)c2cnn(-c3ccc(F)cc3F)c2)CC1=O`, the “% Inhibition” value is reported as -1% and the Z score is on record as 0.28.
Regarding `CNC(=O)c1nc(C(C)(C)NC(=O)c2ccc(C)nc2)nc2c1OCO2`, the “% Inhibition” value worked out at 3% and the Z score is recorded as -0.38.
For `CC(C)(C)OC(=O)N[C@@H](CC(=O)O)c1ccsc1` the same measures were -3% and 0.66.
For `COc1ccc(NC(=O)C2[C@@H]3C=C[C@]4(O3)C(C(=O)NC3CCCC(C)C3C)N(CCN3CCCCC3)C(=O)[C@H]24)cc1` (some centres undefined), the “% Inhibition” value was -3% and the Z score is given as 0.31.
For `OCCOc1ccccc1-c1nccn1CCc1cccc(F)c1`, the “% Inhibition” value is listed as 2% and the Z score is -0.42.
As for `Cc1ccsc1C(=O)N1C[C@H]2CCN(C(C)C)C[C@@]2(CO)C1`, the “% Inhibition” value is listed as -7% and the Z score is on record as 0.98.
`O=C(NCCNC(=O)c1nc(-c2ccc(Br)o2)no1)c1ccco1`: the “% Inhibition” value is -17% and the Z score is given as 2.18.
On to `Cc1ncc(NC(=O)C2C3CCC(O3)C2C(F)(F)F)cn1` (centres undefined), for which the “% Inhibition” value is listed as -8% and the Z score is given as 1.38.
For `O=C1[C@@H]2C3CCCN3C3(C(=O)Nc4ccccc43)[C@@H]2C(=O)N1CCc1ccccc1` (some centres undefined) the same measures were 0% and 0.06.
As to `O=C(Nc1ccc2c(c1)OCO2)c1nnc(C(=O)N2CCC(C(=O)NC3CCCCC3)CC2)s1`, the “% Inhibition” value is reported as -23% and the Z score is reported as 2.06.
For `CC[C@H]1c2cccn2CCN1C(=O)c1cc(C(C)C)n2ncnc2n1`, the “% Inhibition” value was determined as 10% and the Z score is -1.44.
